The source of these data is US11685745B2, “Substituted benzoxazole and benzofuran compounds as PDE7 inhibitors” (Dart NeuroScience, LLC, priority 2017, dated 2023).

The structures appear in SMILES notation.

This assay has as its target N-terminal truncated recombinant human PDE7B enzyme (Homo sapiens (Human), UniProt Q9NP56). In words: biochemical.
In general, IC50 refers to the midpoint of a concentration-inhibition curve. On to `CC(C)NCc1nc2cc(Cl)c3c(c2o1)C1(CCCCC1)NC(=O)N3` [Example 39, 5-Chloro-2-{[(propan-2-yl)amino]methyl}-7,8-dihydro-6H-spiro[[1,3]oxazolo[5,4-f]quinazoline-9,1′-cyclohexane]-7-one], for which the IC50 lay within 10 to 100 nM.

With `CCNCc1nc2cc(Cl)c3c(c2o1)C1(CCCCC1)NC(=O)N3` [Example 40, 5-Chloro-2-[(ethylamino)methyl]-7,8-dihydro-6H-spiro[[1,3]oxazolo[5,4-f]quinazoline-9,1′-cyclohexane]-7-one], the IC50 is 10 to 100 nM.

As to `O=C1Nc2c(Cl)cc3nc(CNCCO)oc3c2C2(CCCCC2)N1` [Example 41, 5-Chloro-2-{[(2-hydroxyethyl)amino]methyl}-7,8-dihydro-6H-spiro[[1,3]oxazolo[5,4-f]quinazoline-9,1′-cyclohexane]-7-one], the IC50 was 10 to 100 nM.

As for `O=C1Nc2c(Cl)cc3nc(CN4CCC(F)(F)CC4)oc3c2C2(CCCCC2)N1` [Example 42, 5-Chloro-2-[(4,4-difluoropiperidin-1-yl)methyl]-7,8-dihydro-6H-spiro[[1,3]oxazolo[5,4-f]quinazoline-9,1′-cyclohexane]-7-one], the IC50 lay in the range of 10 to 100 nM.

In the case of `CN(CCO)Cc1nc2cc(Cl)c3c(c2o1)C1(CCCCC1)NC(=O)N3` [Example 44, 5-Chloro-2-{[(2-hydroxyethyl)(methyl)amino]methyl}-7,8-dihydro-6H-spiro[[1,3]oxazolo[5,4-f]quinazoline-9,1′-cyclohexane]-7-one], the IC50 fell in the range of 10 to 100 nM.

As to `O=C1Nc2c(Cl)cc3nc(CN4CC(F)(F)C4)oc3c2C2(CCCCC2)N1` [Example 45, 5-Chloro-2-[(3,3-difluoroazetidin-1-yl)methyl]-7,8-dihydro-6H-spiro[[1,3]oxazolo[5,4-f]quinazoline-9,1′-cyclohexane]-7-one], the IC50 was in the range of 10 to 100 nM.

With `O=C1Nc2c(Cl)cc3nc(CN4CCC(F)(F)C4)oc3c2C2(CCCCC2)N1` [Example 46, 5-Chloro-2-[(3,3-difluoropyrrolidin-1-yl)methyl]-7,8-dihydro-6H-spiro[[1,3]oxazolo[5,4-f]quinazoline-9,1′-cyclohexane]-7-one], the IC50 was in the range of 10 to 100 nM.

For `CC(=O)N1CCN(Cc2nc3cc(Cl)c4c(c3o2)C2(CCCCC2)NC(=O)N4)CC1` [Example 47, 2-[(4-Acetylpiperazin-1-yl)methyl]-5-chloro-7,8-dihydro-6H-spiro[[1,3]oxazolo[5,4-f]quinazoline-9,1′-cyclohexane]-7-one], the half-inhibitory concentration (IC50) lay within 10 to 100 nM.

As to `CCC(=O)N1CCN(Cc2nc3cc(Cl)c4c(c3o2)C2(CCCCC2)NC(=O)N4)CC1` [Example 48, 5-Chloro-2-[(4-propanoylpiperazin-1-yl)methyl]-7,8-dihydro-6H-spiro[[1,3]oxazolo[5,4-f]quinazoline-9,1′-cyclohexane]-7-one], the IC50 lay within 10 to 100 nM.

Regarding `O=C1Nc2c(Cl)cc3nc(CN4CCC5(CCOC5)CC4)oc3c2C2(CCCCC2)N1` [Example 49, 5-Chloro-2-{2-oxa-8-azaspiro[4.5]decan-8-ylmethyl}-7,8-dihydro-6H-spiro[[1,3]oxazolo[5,4-f]quinazoline-9,1′-cyclohexane]-7-one], the half-inhibitory concentration (IC50) was in the range of 10 to 100 nM.

Turning to `O=C1Nc2c(Cl)cc3nc(CN4CCN(C5COC5)CC4)oc3c2C2(CCCCC2)N1` [Example 50, 5-Chloro-2-{[4-(oxetan-3-yl)piperazin-1-yl]methyl}-7,8-dihydro-6H-spiro[[1,3]oxazolo[5,4-f]quinazoline-9,1′-cyclohexane]-7-one], the IC50 was 100 to 1000 nM.

As for `CC(C)(C)OC(=O)N1CCCCC1CNCc1nc2cc(Cl)c3c(c2o1)C1(CCCCC1)NC(=O)N3` (stereo not drawn) [Example 52, Tert-Butyl 2-[({5-chloro-7-oxo-7,8-dihydro-6H-spiro[[1,3]oxazolo[5,4-f]quinazoline-9,1′-cyclohexane]-2-ylmethyl}amino)methyl]piperidine-1-carboxylate], the IC50 is 10 to 100 nM.
